Assay results reported in PubChem BioAssay (Tox21).
“And” between values parts separate entries of the source, which are not always exact repeats. Equal entries are not always repeated. Inconclusive means that the source gave no clear call. Such entries were picked first, then a sample of the others. For some of these results: Potencies of inconclusive entries are doubtful fits and often do not repeat. More than one record can exist for a structure, and the calls need not agree. The source made the active and inactive calls. Unless noted, the call rests on the fitted dose curve; in most records, active means well fitted curve in the direction sought with a large enough effect in the repeat runs; inconclusive means weak or mixed curves; inactive means no such curve, though single readings can be large; an effect the other way counts as inactive or inconclusive.

Assays:
[1] = qHTS assay to identify small molecule agonists of the estrogen receptor beta (ER-beta) signaling pathway - cell viability counter screen (AID 1259380); further: nearly all actives have a fitted effect of over 30% in size; further: potency means the concentration at half of the fitted maximal effect
In short: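 Steps: plate ER-beta-UAS-bla HEK293T cells, rest 6 hr; add compounds in DMSO; incubate 16 hr at 37C, 5% CO2; add FRET substrate 2 hr; add CellTiter-Glo, wait 30 min at room temperature; read luminescence.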

[2] = qHTS assay to identify small molecule antagonists of the estrogen receptor beta (ER-beta) signaling pathway - cell viability counter screen (AID 1259382); further: nearly all actives have a fitted effect of over 55% in size; further: potency means the concentration at half of the fitted maximal effect
In short: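 Viability is scored by CellTiter-Glo luminescence (30 min, room temperature) in ER-beta-UAS-bla HEK293T wells already read for reporter fluorescence. Compound exposure lasts 16 hr at 37C alongside 1nM 17-beta-estradiol in charcoal-stripped serum medium.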

[3] = molecular target: Progesterone receptor (Homo sapiens) (UniProt P06401); assay: qHTS assay to identify small molecule antagonists of the progesterone receptor (PR) signaling pathway (AID 1346795; active means well fitted inhibition curve with a large enough effect in the signal ratio in the repeat runs, not every such curve was filed as active; inconclusive means weak or mixed curves; the % refers to the signal ratio; further: potency means the concentration at half of the fitted maximal effect; on activity change, negative = inhibition: on the % scale 0 is the no-effect control and ±100 the full control effect); details: PR-UAS-bla HEK293T, beta-lactamase FRET ratio, 16 h
In short: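 HEK293T PR-UAS-bla reporter cells in charcoal-stripped serum (2%) received compound after a 6 hr settling period, followed by R5020 agonist at 1 nM final; 16 hr incubation preceded the FRET substrate step and fluorescence measurement.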

[4] = qHTS assay to identify small molecule antagonists of the progesterone receptor (PR) signaling pathway - cell viability counter screen (AID 1346798); further: nearly all actives have a fitted effect of over 50% in size; further: potency means the concentration at half of the fitted maximal effect
In short: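 Same-well multiplex: after 16 hr at 37C with compound and R5020 stimulation, HEK293T cells carrying a UAS-bla reporter received LiveBLAzer substrate (2 hr RT), then CellTiter-Glo (30 min RT) for luminescent viability.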

[5] = qHTS assay to identify small molecule agonists of the progesterone receptor (PR) signaling pathway - cell viability counter screen (AID 1346799; calls by dose curve; further: nearly all actives have a fitted effect of over 45% in size; further: potency means the concentration at half of the fitted maximal effect)
In short: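 Counter screen for cytotoxicity: compound-treated PR-UAS-bla HEK293T cells (16 hr, 37C, 5% CO2) were assayed with CellTiter-Glo, luminescence measured after 30 min at room temperature.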

[6] = qHTS assay to identify small molecule antagonists of the TGF-beta/Smad signaling pathway - cell viability counter screen (AID 1346824); further: potency means the concentration at half of the fitted maximal effect; nearly all actives have a fitted effect of over 50% in size
In short: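 Cytotoxicity counter-screen run in the same wells as the beta-lactamase Smad reporter read: CellTiter-Glo luminescence after 30 min at room temperature. HEK 293T SBE-bla cells had 5 hr compound exposure at 37 C with TGF-beta1 (0.25 ng/mL stock).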

[7] = qHTS assay to identify small molecule agonists of the androgen receptor (AR) signaling pathway in the presence of an antagonist - cell viability counter screen (AID 1259379); further: nearly all actives have a fitted effect of over 25% in size; further: potency means the concentration at half of the fitted maximal effect
In short: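 Nilutamide-containing (3.0uM final) MDA-kb2 cultures, 3,000 cells/well, were treated with compounds across 15 concentrations. After 16 hr at 37C with no CO2, cell viability was determined by CellTiter-Fluor fluorescence in the luciferase assay wells.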

[8] = qHTS assay to identify small molecule agonists of the TGF-beta/Smad signaling pathway - cell viability counter screen (AID 1346829); further: top concentration of the series differs between compounds; on the % scale 0 is the no-effect control and ±100 the full control effect; nearly all actives have a fitted effect of over 45% in size
In short: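 Here the cytotoxicity of library compounds is measured in SBE-bla HEK 293T cells treated for 5 hr, using CellTiter-Glo added to wells already read for the beta-lactamase reporter.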

[9] = molecular target: Estrogen receptor (Homo sapiens) (UniProt P03372); assay: qHTS assay to identify small molecule agonists of the estrogen receptor alpha (ER-alpha) signaling pathway in the presence of an antagonist (AID 1259383; calls by dose curve; further: top concentration of the series differs between compounds; on the % scale 0 is the no-effect control and ±100 the full control effect; nearly all actives have a fitted effect of over 15% in size)
In short: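 Readout was ERE-driven luciferase luminescence in VM7Luc4E2 cells, which express full-length ER-alpha endogenously. Compounds were tested at 15 concentrations for 22hr alongside 10.0nM ICI-182,780 (final concentration).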

[10] = qHTS assay to identify small molecule agonists of the estrogen receptor alpha (ER-alpha) signaling pathway in the presence of an antagonist - cell viability counter screen (AID 1259386);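 further: cells exposed to compounds for 22 h at 37 °C before the viability read; nearly all actives have a fitted effect of over 30% in size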; further: potency means the concentration at half of the fitted maximal effect
In short: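 In this counter screen, compound effects on VM7Luc4E2 viability were tested in the presence of the antagonist ICI-182,780 at 10.0nM final. Compounds were dosed at 15 concentrations, exposure lasted 22hr, and the CellTiter-Fluor signal was read.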

[11] = qHTS assay to identify small molecule agonists of the TGF-beta/Smad signaling pathway (AID 1346859; active means well fitted activation curve with a large enough effect in the signal ratio in the repeat runs, not every such curve was filed as active; inconclusive means weak or mixed curves; the % refers to the signal ratio; further: potency means the concentration at half of the fitted maximal effect); details: SBE-bla HEK293T, TGF-beta/Smad beta-lactamase reporter, 5 h; activation: at 76.8 µM (top of the series)
In short: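 Smad-responsive beta-lactamase reporter cells (HEK 293T) received compounds from DMSO stocks after overnight attachment, were incubated 5 hr, then treated 2 hr with FRET substrate before dual-emission fluorescence measurement (405 nm excitation).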

[12] = molecular target: Progesterone receptor (Homo sapiens) (UniProt P06401); assay: qHTS assay to identify small molecule agonists of the progesterone receptor (PR) signaling pathway (AID 1346784; calls by dose curve; further: nearly all actives have a fitted effect of over 30% in size; further: potency means the concentration at half of the fitted maximal effect; on activation: on the % scale 0 is the no-effect control and ±100 the full control effect); details: PR-UAS-bla HEK293T, beta-lactamase FRET ratio, 16 h; activation: at 92.4 µM (top of the series) unless noted
In short: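 Agonist mode, quantitative HTS format in a HEK 293T line expressing a UAS-controlled beta-lactamase reporter; 16 hr compound exposure at 37C in 2% charcoal-stripped FBS, then LiveBLAzer B/G FRET fluorescence.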

[13] = qHTS assay to identify small molecule agonists or antagonists of the thyroid stimulating hormone receptor (TSHR) signaling pathway - wild type cell line counter screen (AID 1259384; calls by dose curve; further: on the % scale 0 is the no-effect control and ±100 the full control effect); details: HEK293 wild type, cAMP HTRF counter-screen; cAMP activity change: at 92.4 µM (top of the series), stronger effect = higher value unless noted
In short: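 Counter screen in untransfected Hek293: compounds (15-point titration, triplicate) plus phosphodiesterase inhibitor Ro20-1724 added after 18 h plating; 30 min RT. Intracellular cAMP via competitive d2/cryptate immunoassay, 1 h incubation.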

[14] = molecular target: Thyrotropin receptor (Homo sapiens) (UniProt P16473); assay: qHTS assay to identify small molecule antagonists of the thyroid stimulating hormone receptor (TSHR) signaling pathway (AID 1259385; calls by dose curve; further: on the % scale 0 is the no-effect control and ±100 the full control effect; nearly all actives have a fitted effect of over 20% in size); details: TSHR-HEK293 cAMP HTRF, TSH-stimulated antagonist mode; activity change, negative = inhibition: at 92.4 µM (top of the series) unless noted
In short: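 Antagonist mode: compound-treated TSHR-expressing HEK293 cells were stimulated with 1.5 ng/mL TSH (final) in presence of Ro20-1724 for 30 min at RT. HTRF cAMP detection after 1 h; each compound tested at 15 concentrations, triplicate.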

[15] = activity change, negative = inhibition: at 92.4 µM (top of the series) unless noted
Tags describe the fitted curve by direction and shape or compound fluorescence and quenching.

UniProt P06401, sequence (P06401 whole entry, looked up): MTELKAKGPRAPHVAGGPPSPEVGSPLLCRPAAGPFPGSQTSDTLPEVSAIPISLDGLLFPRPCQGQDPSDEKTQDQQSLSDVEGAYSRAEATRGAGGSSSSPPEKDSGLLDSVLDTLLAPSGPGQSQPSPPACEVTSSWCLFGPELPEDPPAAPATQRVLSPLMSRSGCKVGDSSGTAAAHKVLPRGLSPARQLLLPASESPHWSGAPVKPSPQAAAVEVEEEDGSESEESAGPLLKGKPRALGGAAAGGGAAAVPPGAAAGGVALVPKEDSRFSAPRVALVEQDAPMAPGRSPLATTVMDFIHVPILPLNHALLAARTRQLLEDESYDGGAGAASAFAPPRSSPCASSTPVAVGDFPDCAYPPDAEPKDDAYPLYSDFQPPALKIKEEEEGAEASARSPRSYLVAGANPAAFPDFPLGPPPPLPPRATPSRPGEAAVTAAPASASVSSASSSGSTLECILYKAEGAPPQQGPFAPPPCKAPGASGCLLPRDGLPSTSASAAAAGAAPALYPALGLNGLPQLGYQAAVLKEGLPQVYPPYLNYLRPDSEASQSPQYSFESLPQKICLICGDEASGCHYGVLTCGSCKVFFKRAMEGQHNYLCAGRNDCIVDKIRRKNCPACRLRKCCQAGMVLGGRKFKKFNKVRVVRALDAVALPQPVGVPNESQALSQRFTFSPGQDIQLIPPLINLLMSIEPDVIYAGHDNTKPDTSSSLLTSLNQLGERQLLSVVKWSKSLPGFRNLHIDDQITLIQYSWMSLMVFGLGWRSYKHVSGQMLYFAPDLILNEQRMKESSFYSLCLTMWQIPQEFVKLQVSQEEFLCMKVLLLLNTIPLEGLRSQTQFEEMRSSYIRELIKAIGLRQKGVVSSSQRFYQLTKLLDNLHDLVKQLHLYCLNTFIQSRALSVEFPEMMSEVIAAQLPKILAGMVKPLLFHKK
UniProt P16473, sequence (P16473 whole entry, looked up): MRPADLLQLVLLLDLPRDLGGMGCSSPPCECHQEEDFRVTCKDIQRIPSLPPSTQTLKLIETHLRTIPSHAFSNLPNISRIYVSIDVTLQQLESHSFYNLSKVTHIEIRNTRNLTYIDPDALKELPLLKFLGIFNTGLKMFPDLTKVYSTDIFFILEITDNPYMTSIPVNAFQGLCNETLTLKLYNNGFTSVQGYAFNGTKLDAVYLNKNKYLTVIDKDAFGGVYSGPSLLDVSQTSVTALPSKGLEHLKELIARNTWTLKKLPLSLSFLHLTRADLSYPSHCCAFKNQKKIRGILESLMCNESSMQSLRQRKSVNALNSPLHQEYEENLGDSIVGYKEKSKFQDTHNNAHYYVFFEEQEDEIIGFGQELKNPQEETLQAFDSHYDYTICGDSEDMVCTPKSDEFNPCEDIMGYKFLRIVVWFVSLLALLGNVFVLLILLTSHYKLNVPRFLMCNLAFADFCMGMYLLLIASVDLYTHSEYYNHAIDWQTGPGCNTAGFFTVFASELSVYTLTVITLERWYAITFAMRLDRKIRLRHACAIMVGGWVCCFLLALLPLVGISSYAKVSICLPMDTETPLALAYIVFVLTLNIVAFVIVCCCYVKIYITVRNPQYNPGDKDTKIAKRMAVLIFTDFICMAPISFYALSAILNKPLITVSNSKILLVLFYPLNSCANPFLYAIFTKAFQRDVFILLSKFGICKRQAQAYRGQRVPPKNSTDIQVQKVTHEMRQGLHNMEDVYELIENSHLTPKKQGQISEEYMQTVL
UniProt P03372, sequence (P03372 whole entry, looked up): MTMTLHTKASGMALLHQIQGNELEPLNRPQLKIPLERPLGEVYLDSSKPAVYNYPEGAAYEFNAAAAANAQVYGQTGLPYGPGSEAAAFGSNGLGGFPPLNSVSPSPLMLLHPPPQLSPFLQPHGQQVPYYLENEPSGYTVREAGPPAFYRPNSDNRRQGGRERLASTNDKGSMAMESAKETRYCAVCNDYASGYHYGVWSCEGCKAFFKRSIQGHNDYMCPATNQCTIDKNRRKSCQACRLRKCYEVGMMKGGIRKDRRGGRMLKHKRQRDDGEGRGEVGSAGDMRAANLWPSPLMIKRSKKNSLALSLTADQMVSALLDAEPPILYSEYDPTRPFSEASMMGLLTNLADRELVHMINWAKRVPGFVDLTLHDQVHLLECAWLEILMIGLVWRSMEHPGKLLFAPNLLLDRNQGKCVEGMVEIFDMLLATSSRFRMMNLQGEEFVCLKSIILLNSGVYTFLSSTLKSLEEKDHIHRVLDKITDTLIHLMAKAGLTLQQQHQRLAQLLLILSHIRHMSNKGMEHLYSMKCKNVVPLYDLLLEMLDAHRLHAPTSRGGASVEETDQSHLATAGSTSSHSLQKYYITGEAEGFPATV

Compound: CC(C)C(=O)OC/C=C/c1ccccc1
- Potency [1]: inconclusive: 0.611 µM [cytotoxic, single point]

Compound: Clc1cccc(C(c2ccc3nc[nH]c3c2)n2ccnc2)c1 (centres undefined)
- Potency [1]: inconclusive: 33.5 µM [rising, partial curve, poor fit]

Compound: C[C@@H](O)[C@H]1C(=O)N2C(C(=O)O)=C(SCCN=CN)C[C@H]12
- Potency [1]: inactive

Compound: CCCCC(=O)O
- Potency [1]: inactive

Compound: C1N2CN3CN1CN(C2)C3
- Potency [1]: inactive
- Potency [2]: inactive
- activity change, negative = inhibition [3, 15]: inconclusive: 2.47%
- Potency [4]: inconclusive: 27.1 µM [rising, single point]
- Potency [5]: inconclusive: 35.2 µM [rising, partial curve, poor fit]
- Potency [6]: inconclusive: 10.7 µM [cytotoxic, single point]

Compound: CCCCNc1cc(C(=O)O)cc(S(N)(=O)=O)c1Oc1ccccc1
- Potency [1]: inconclusive: 18.8 µM [rising, partial curve, poor fit]

Compound: CC1=CC(=O)NS(=O)(=O)O1
- Potency [1]: inconclusive: 27.4 µM [cytotoxic, full curve]

Compound: Cc1ccc(S(=O)(=O)NCl)cc1
- Potency [1]: inconclusive: 23.4 µM [rising, single point]

Compound: Oc1ccc(O)c2c(O)cccc12
- Potency [7]: inconclusive: 68 µM [cytotoxic, single point]
- Potency [5]: inactive
- Potency [8]: inactive

Compound: O=C(O)c1c2ccccc2cc2ccccc12
- Potency [7]: inconclusive: 30.5 µM [cytotoxic, full curve]
- activity change, negative = inhibition [3, 15]: inconclusive: -33.6%
- Potency [4]: inconclusive: 30.5 µM [rising, partial curve]

Compound: O=C1c2ccccc2C(=O)C1c1ccccc1
- Potency [1]: inactive
- Potency [9]: inactive

Compound: O=C(C1CCCCC1)N1CC(=O)N2CCc3ccccc3C2C1 (centres undefined)
- Potency [1]: inconclusive: 30.6 µM [cytotoxic, full curve]
- Potency [2]: inconclusive: 43.2 µM [cytotoxic, partial curve, poor fit] and inactive
- Potency [10]: inconclusive: 61.1 µM [cytotoxic, partial curve, poor fit]
- activity change, negative = inhibition [3, 15]: inconclusive: 3.47% [at 42.5 µM]
- Potency [11]: inconclusive: 21.8 µM [rising, partial curve] and inconclusive: 21.9 µM [rising, partial curve] and inconclusive: 10.7 µM [rising, partial curve]

Compound: CN(C)CCCN
- Potency [1]: inconclusive: 77 µM [rising, single point]

Compound: Cc1nc(C)c(C)nc1C
- Potency [7]: inactive
- Potency [3, 15]: inconclusive: 34.3 µM [rising, partial curve]
- Potency [4]: inconclusive: 30.6 µM [cytotoxic, partial curve, poor fit]
- Potency [5]: active: 30.6 µM

Compound: CCCCCCCCCCCC[N+](C)(C)CC(=O)[O-]
- Potency [1]: active: 24.3 µM
- Potency [2]: inconclusive: 43.3 µM [cytotoxic, partial curve]
- Potency [4]: inconclusive: 17.2 µM [cytotoxic, full curve]
- Potency [5]: active: 21.7 µM

Compound: CCc1cnc(C(=O)O)c(C(=O)O)c1
- Potency [1]: inconclusive: 25.2 µM [rising, single point]

Compound: O=C(O)Cc1c(Cl)ccc(Cl)c1Cl
- Potency [1]: inactive
- Potency [12]: inactive
- Potency [3, 15]: inactive
- Potency [5]: inactive
- Potency [11]: inconclusive: 54.9 µM [rising, single point]

Compound: O=C(O)c1ccc(C(=O)O)c(C(=O)O)c1
- Potency [1]: inconclusive: 15.6 µM [cytotoxic, single point]
- activation [12]: inconclusive: -0.785%
- activity change, negative = inhibition [3, 15]: inconclusive: 1.32%
- Potency [5]: inactive

Compound: CC(C)c1ccc2c(C(C)C)cc(C(C)C)c(S(=O)(=O)O)c2c1
- Potency [1]: inconclusive: 70.9 µM [cytotoxic, single point]
- Potency [12]: inconclusive: 0.563 µM [falling, single point]

Compound: N=C(N)S(=O)O
- Potency [1]: inactive
- Potency [12]: inconclusive: 0.588 µM [cytotoxic, single point]
- activity change, negative = inhibition [3, 15]: inconclusive: 0.0535%

Compound: CC1(C)C(=O)NC(=O)N1CO
- Potency [1]: inconclusive: 27.3 µM [cytotoxic, single point]
- Potency [10]: inactive
- Potency [4]: inactive

Compound: CCCCCCCCCCCCOCCO
- Potency [1]: inactive
- Potency [3, 15]: inconclusive: 54.5 µM [falling, partial curve]
- activity change, negative = inhibition [3, 15]: inconclusive: -5.43% [at 42.5 µM]
- Potency [5]: inconclusive: 68.6 µM [cytotoxic, single point]

Compound: O=C(O)c1cc(O)c(O)c(O)c1
- Potency [1]: inconclusive: 29.8 µM [rising, partial curve, poor fit]
- cAMP activity change [13]: inconclusive: -0.949%
- activity change, negative = inhibition [14]: inconclusive: 1.99%
- Potency [10]: inconclusive: 29.8 µM [cytotoxic, partial curve]
- activity change, negative = inhibition [3, 15]: inconclusive: -22.1%
- activity change, negative = inhibition ([3]; at 42.5 µM (top of the series)): inactive: 0.524%
- Potency [4]: inconclusive: 69.2 µM [cytotoxic, single point]
